Reference: PMC10764310, “Shape morphing of hydrogels by harnessing enzyme enabled mechanoresponse” (Nature Communications, 2024)

Key:
[1] = target: thrombin-SNAP; experiment: ITC; Hir-S (108 uM) in the syringe titrated into Thr-S (26.2 uM) in the cell; PBS, pH 7.4; 25 °C; Kd the average of triplicate measurements; details: both partners purified
[2] = target: thrombin-SNAP; experiment: AFM-based single-molecule force spectroscopy; Thr-S and Hir-S attached through their SNAP proteins to BS-modified coverslips and cantilevers; PBS, room temperature; pulling speeds 200 to 1600 nm/s; off rate from a two-state Bell-Evans model fit; details: both partners purified

B1: hirudin-SNAP (natural protein)
chain: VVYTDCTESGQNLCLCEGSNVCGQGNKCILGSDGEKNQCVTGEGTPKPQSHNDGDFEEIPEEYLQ
- Kd [1]: ~1 nM
- koff [2]: 2.6 s⁻¹
